Results: PubChem BioAssay (NCATS)
Several values for one entry are separate records, joined by “and”; a condition that tells them apart may be missing. Identical values can stand only once. Some of the results follow. Further columns of the screen follow, without active or inactive calls. The list favours compounds with an active or inconclusive main result. Words in brackets tell the shape of the fitted curve; partial curves, single points and poor fits give uncertain potencies.

experiment: qHTS Assay for Lipid Storage Modulators (AID 1519); settings: Drosophila S3 cells, BODIPY lipid droplet/cell ratio, laser cytometry; measured here: lipid (BODIPY) channel AC50; cells loaded with oleic acid
How it was run: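 Cells seeded at 5,000 per well were treated with compounds over a concentration series and loaded with oleic acid (400 uM, as added). Lipid droplet fluorescence (488 nm excitation, 500-530 nm channel) was read by laser-scanning cytometry and normalized to 20 uM Triacsin C.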
Tags tell the direction and shape of the fitted curve.

Row | SMILES | AC50
1 | COc1cc2c(CCNC(C)=O)c[nH]c2cc1Cl | 14.1 µM [rising, partial curve]
2 | COc1ccc2[nH]cc(CCNc3ncnc4ccc(-c5c(C)noc5C)cc34)c2c1 | 0.251 µM [rising, full curve]
3 | COC(=O)C1=C(C)NC(C)=C(C(=O)OCCSc2ccccc2)[C@@H]1C | 1 µM [rising, full curve]
4 | CCCC[C@H](CC)CN=C(N)NC(N)=NCCCCCCN=C(N)NC(N)=NC[C@@H](CC)CCCC | 15.8 µM [falling, partial curve, poor fit]
5 | C[N+]1(C)CCc2cc3c(cc2[C@@H]1[C@@H]1C(=O)Oc2c1ccc1c2OCO1)OCO3 | 31.6 µM [rising, partial curve, poor fit] and 15.8 µM [rising, partial curve]
6 | COCCn1c(=O)c(-c2ccccc2)nc2cnc(OCc3ccccc3)nc21 | 0.0398 µM [rising, full curve]
7 | COc1ccc(-n2c(=O)c(-c3cccs3)nc3cnc(Oc4ccccc4)nc32)cc1 | 7.94 µM [rising, single point]
8 | COc1ncc2nc(C)c(=O)n(CCC#N)c2n1 | 0.891 µM [rising, full curve]
9 | Nc1[nH]nc2nc3ccccc3nc12 | 4.47 µM [rising, full curve]
10 | CCN(Cc1ccncc1)C(=O)C(CO)c1ccccc1 (stereo not given) | 39.8 µM [rising, single point] and 4.47 µM [falling, partial curve]

same assay, conditions: Drosophila S3 cells, BODIPY lipid droplet/cell ratio, laser cytometry; measured here: lipid channel max response; cells loaded with oleic acid

Row | SMILES | max response
11 | COc1ccccc1CNc1ccnc(-c2cccc(C#N)c2)n1 | 41%
12 | CCNc1ncc2nc(-c3ccc(OC)cc3)c(=O)n(CCc3ccccc3)c2n1 | 38.4%
13 | O=c1c(-c2ccccc2)nc2cnc(N3CCNCC3)nc2n1-c1ccccc1 | 38.2%
14 | O=c1c(CCc2ccccc2)nc2cnc(N3CCOCC3)nc2n1C1CC1 | 31.5%
15 | COCCn1c(=O)c(CCc2ccccc2)nc2cnc(Nc3ccccc3)nc21 | 5.73%
16 | COCCn1c(=O)c(-c2ccc(OC)cc2)nc2cnc(N3CCNCC3)nc21 | 39.7%
17 | CN(C)C(=O)c1ccc(-c2nccc(NCc3ccccc3)n2)cc1 | 14.7%
18 | COc1ccc2[nH]c(I)c(CCNC(C)=O)c2c1 | 129%
19 | O=C(O)c1c2ccccc2cc2ccccc12 | 96.5%
20 | CN1CCN(c2ncnc3ccc(-c4cccnc4)cc23)CC1 | 31.3%
21 | CS(=O)(=O)Nc1cccc(-c2nccc(NCc3cccs3)n2)c1 | 41.9%
22 | COc1ncc2nc(-c3cn(C)c4ccccc34)c(=O)n(-c3ccccc3)c2n1 | 30.3%
23 | COc1cccc(-c2cc(NCc3cccnc3)ncn2)c1 | 49.8%
24 | C[C@@H]1O[C@@H](OC[C@H]2O[C@@H](Oc3c(-c4cccc(O)c4O)oc4cc(O)cc(O)c4c3=O)[C@H](O)[C@@H](O)[C@@H]2O)[C@H](O)[C@H](O)[C@H]1O | -38.2%
25 | COCCn1c(=O)c(-c2ccc(F)cc2)nc2cnc(N(C)C)nc21 | 30.4%
26 | CO/N=C(\C(=O)N[C@@H]1C(=O)N2C(C(=O)O)=C(CSc3nc(=O)c(O)nn3C)CSC12)c1csc(N)n1 (stereo not given in full) | 55.4%
27 | COc1cccc(Cn2c(=O)c(-c3cccs3)nc3cnc(OCc4ccccc4)nc32)c1 | 53.1%
28 | O=c1c(-c2cccc(F)c2)nc2cncnc2n1Cc1ccccc1 | 28.9%
29 | COc1ccccc1CNc1nc(-c2ccc3c(c2)OCO3)nc2ccccc12 | 33.4%
30 | CCNc1ncc2nc(-c3cccs3)c(=O)n(Cc3ccc(F)cc3)c2n1 | 26.5%

Row | SMILES | max response
31 | COc1ccc(-c2nc3cnc(OC)nc3n(Cc3ccc(F)cc3)c2=O)cc1 | 31.5%
32 | O=C1C=CC2=C3c4cc(O)c(O)cc4CC3(O)COC2=C1O (stereo not given) | 48.9%
33 | O=c1c(-c2cccc(F)c2)nc2cncnc2n1C1CC1 | 43.4%
34 | COCCn1c(=O)c(-c2cc(F)cc(F)c2)nc2cnc(Oc3ccc(OC)cc3)nc21 | 18.6%
35 | COc1cccc(Nc2ncc3nc(-c4cc(F)cc(F)c4)c(=O)n(C4CC4)c3n2)c1 | 9.77%
36 | COc1cccc(-c2nc(NCc3cccnc3)c3ccccc3n2)c1 | 42.2%
37 | c1cc(NC2CC2)nc(-c2ccoc2)n1 | 41.2%
38 | COc1ccc2c(=O)cc(-c3ccccc3)oc2c1O | 159%
39 | Cc1cnc(CNc2nc(-c3c(C)noc3C)nc3ccccc23)cn1 | 25.3%
40 | Cn1ccc(O)c(C#N)c1=O | 57.7%
41 | COc1cc2c(CCNC(C)=O)c[nH]c2cc1Cl | 113%
42 | COc1ccc2[nH]cc(CCNc3ncnc4ccc(-c5c(C)noc5C)cc34)c2c1 | 12.7%
43 | COC(=O)C1=C(C)NC(C)=C(C(=O)OCCSc2ccccc2)[C@@H]1C | 1.49%
44 | CCCC[C@H](CC)CN=C(N)NC(N)=NCCCCCCN=C(N)NC(N)=NC[C@@H](CC)CCCC | -93.4%
45 | C[N+]1(C)CCc2cc3c(cc2[C@@H]1[C@@H]1C(=O)Oc2c1ccc1c2OCO1)OCO3 | 53.8% and 96.7%
46 | COCCn1c(=O)c(-c2ccccc2)nc2cnc(OCc3ccccc3)nc21 | 2.9%
47 | COc1ccc(-n2c(=O)c(-c3cccs3)nc3cnc(Oc4ccccc4)nc32)cc1 | 8.33%
48 | COc1ncc2nc(C)c(=O)n(CCC#N)c2n1 | 54%
49 | Nc1[nH]nc2nc3ccccc3nc12 | 98.6%
50 | CCN(Cc1ccncc1)C(=O)C(CO)c1ccccc1 (stereo not given) | 45.4% and 49.1%
